Values marked as one replicate rest on one cluster of the flow cell; about a third of the high ones do not repeat.
Tested on: ATP
Test: switch fluorescence ratio, 500 uM ATP over buffer (Cy3 cluster intensity, sum of 5 cycles each) (fold (ratio)); higher = stronger signal-on switching upon ATP binding; sequences stand for … in TCGTCGGCAGCGTCAGATGTGTATAAGAGACAGTTTTTTTTTTTTTTTTTTTTTTTTT…TC
Conditions: aptamer strand: ATP DNA aptamer (quencher-CACCTGGGGGAGTATTGCGGAGGAAGG + anchor), 100 nM annealed; ATP concentration: 500 uM; one replicate
Method in brief: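 Switching-strand clusters labelled with Cy3 on a modified Illumina MiSeq flow-cell were annealed to 100 nM quencher-labelled ATP aptamer, imaged in selection buffer, and re-imaged after 15 min with 500 uM ATP at 22 °C. This was done over five cycles with NaOH stripping and re-annealing in between. The fluorescence ratio is summed target-cycle over summed buffer-cycle Cy3 intensity per cluster, averaged per switch-domain sequence, excluding clusters outside 100-1000 RFU.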
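Further: ATP exposure 15 min at 22 °C before imaging.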

Row | Sequence | switch fluorescence ratio
1 | GGGCGCAGGA | 1.03
2 | GGACCCTTTT | 1.01
3 | TCTATGCGAG | 1
4 | ACAGCTTCTT | 1.01
5 | ATCATAACG | 0.969
6 | ATCAGTATAC | 1.09
7 | GGGGGTTGCT | 1.03
8 | GCGTTCAAG | 0.972
9 | AATACAGA | 1.02
10 | TCTTCAAGGT | 0.965
11 | GATACTTTCT | 1.04
12 | TCGTGCCGTA | 0.966
13 | TTGTGGCACC | 1.01
14 | CACGTCTACT | 1.14
15 | GCATGATGTA | 0.972
16 | GAAATCCTGG | 1.02
17 | CTGCGTTTAT | 1.01
18 | TAGAGGTGTT | 1.02
19 | TATCGACTGT | 0.997
20 | GGTAATGGCT | 1.1
21 | AACATTCAAG | 1.04
22 | AAATTTTTCC | 1.08
23 | GATCTTATAA | 1

Row | Sequence | switch fluorescence ratio
24 | GAATAGAGAC | 0.964
25 | TCTATCATCG | 0.974
26 | CGGGTTCAC | 0.98
27 | AAAAAGGTCA | 1.04
28 | TTTCTTTTGT | 0.946
29 | TTATAACTAG | 0.986
30 | CTACTTTTGA | 0.963
31 | GCAGGATGAT | 0.986
32 | ATAGCAAACG | 1.37
33 | CAACTTAAAC | 1.06
34 | CAACCGGGAT | 1.16
35 | CTTCGAGTTG | 0.98
36 | AGCAGTCTGC | 0.957
37 | AGAAGATCTG | 0.963
38 | TCGTGGGAGA | 1.01
39 | CTGTGTGTGG | 1
40 | GTCCTTTATA | 0.98
41 | GCGACAAGCC | 1.09
42 | TCCGTTTTAT | 1.01
43 | GAGCGGTAGA | 0.974
44 | CGGGCAAATC | 1.19
45 | GTGTGTACTG | 0.969
46 | CTAACCCCAA | 1.1

Row | Sequence | switch fluorescence ratio
47 | GGGGTGTCGT | 0.991
48 | AGCCTTGCGG | 1.03
49 | TCATAACAAA | 0.991
50 | GTCATTTCAT | 0.992
51 | AATTGCAACG | 1.02
52 | TGCGGGCAGG | 1.01
53 | TTCTTGCAGC | 0.99
54 | GGTCGCGTTA | 1
55 | ATATTTTGAG | 0.984
56 | GTTCTGAAGA | 1.03
57 | TTTATAACTA | 0.999
58 | GGTGCGCTGT | 1.04
59 | AGAGCTACCT | 1.1
60 | CCTATTAGTA | 1
61 | AACTAATGC | 1.06
62 | CTCAGTCGCT | 0.99
63 | TGATGGCGGC | 1.05
64 | TCAGTAAGCT | 1.04
65 | TACCGCCACA | 1.41
66 | TGATTTGTCC | 1.02
67 | GTAGGGTGAT | 1.01
68 | CCTGTCTGGT | 0.94
69 | ATCTGTTGTG | 0.986

Row | Sequence | switch fluorescence ratio
70 | CTCAACTGAA | 1.02
71 | CCCATCGCTG | 1.31
72 | AAAAATGAAA | 1
73 | TGCGCAAAAA | 0.967
74 | AAATACGGAT | 0.974
75 | GCATCGGAAA | 0.993
76 | ATATTTATAT | 1
77 | CCGTCTTTTC | 1.11
78 | ACTAGGAATA | 1.03
79 | TATTGTCCTA | 1.03
80 | CGTCTGCCA | 1.07
81 | GTAAATTTTG | 0.998
82 | GAACATAAAC | 1.02
83 | GACTATGTCC | 0.975
84 | CATTTGCGAC | 1.39
85 | ACACACCCAC | 1.54
86 | CTACATTTGA | 0.969
87 | GTGTGCGAAA | 0.982
88 | CGGGGGCTAT | 0.993
89 | GGATCTGGGC | 1.01
90 | AGGTGGGTTC | 0.985
91 | AATTGCAACT | 1
92 | CGGACCCTTT | 1.03

Row | Sequence | switch fluorescence ratio
93 | GCGCATGTA | 1.04
94 | AGGAAGGCTG | 1.07
95 | GTCATATACG | 1.1
96 | TTCAAAGAGA | 0.97
97 | AGAGATACGT | 1.04
98 | GCCTATGAGA | 1.03
99 | CCTATCTATT | 1
100 | TGAGAGGATT | 0.999
101 | GGTCTCTGCC | 1.04
102 | GGCCCTCGCG | 1.05
103 | ATGTCATCTG | 1.03
104 | AAATCTTAG | 1.04
105 | AATATGAAC | 1.04
106 | TTATGGATTC | 0.991
107 | TTACTGTACA | 1.46
108 | TGGAATAGGA | 1.03
109 | TCTTTGAGAA | 0.993
110 | TCATCGAGTG | 1
111 | CGGTGATGAA | 0.998
112 | GACAGCTAAA | 1.08
113 | GAAGAGCTTG | 0.994
114 | GGGG | 1.01
115 | TAGCTTATTC | 1.1

Row | Sequence | switch fluorescence ratio
116 | GGGTAGGCCT | 0.955
117 | CGAGTTAAGA | 1.01
118 | TAAAGTATTA | 0.984
119 | CATGGGGCCC | 1.01
120 | TATCGGTAGT | 0.954
121 | TATCGCTTCC | 2.22
122 | ATGGTCAGAC | 0.972
123 | CAATATAATG | 1.05
124 | CTGTTAGAGC | 1.05
125 | TCGACGGGAA | 1.28
126 | CACTATTACC | 1.16
127 | TGGGCCCTGG | 1.01
128 | AGCTGCACGG | 1.01
129 | TGGCTTGAGG | 0.985
130 | GAAATTTA | 0.981
131 | ATGACGAAGA | 1.01
132 | AACTAGGCGG | 1.03
133 | TTGCTTGG | 1.02
134 | CGAGATCACA | 0.937
135 | CATAGGTATT | 0.986
136 | GTCGAGGGAT | 0.983
137 | GATACGAGAT | 1.04
138 | TACGATCGGT | 0.975

Row | Sequence | switch fluorescence ratio
139 | CGCAGTCCGC | 1.68
140 | AGTTATTAGA | 1.04
141 | GGAATTAGAA | 0.983
142 | GACAATGAAG | 0.974
143 | TGCAGGACGG | 1.02
144 | ACATTCTGAA | 0.965
145 | TCTATCGTAA | 1.35
146 | GACCTGCGGT | 1
147 | GGAAATCTTT | 0.953
148 | AGGTACAGTT | 1.01
149 | CGACCTAATT | 1.08
150 | TTCTGAAATG | 1.01
151 | CGTGTATTT | 1.07
152 | ACCCACCCCT | 1.35
153 | TCTTCTGTAC | 1.02
154 | TTAGCCGTGA | 1.02
155 | GCGGGGCCAA | 0.997
156 | CCCTATAAAC | 1.02
157 | AGGAGGCAG | 1.04
158 | GTATCAGGAG | 0.964

From the supplement of paper PMC10126150
